PubChem BioAssay (NCATS)
“And” between values parts separate entries of the source, which are not always exact repeats. Equal entries are not always repeated. This list was built around the results that the source calls inconclusive (neither active nor inactive); the mix of calls is not that of the screen. Potencies of inconclusive entries are doubtful fits and often do not repeat. The source made the active and inactive calls. Calls follow the shape of the dose curve; as a rule, active = well fitted cell-killing curve with a large enough effect; inconclusive = small, poorly fitted or top-dose-only effect, or effect the other way; inactive = no such curve, though single readings can be large or run the other way.

What was measured:
[1] = Viability qHTS for spleen associated tyrosine kinase inhibitor (SYKi) naive MV4-11 cells (AID 1963823); details: MV4-11 AML viability, CellTiter-Glo luminescence, 72 h; viability (% of control): at 45 µM (top of the series); also: nearly all actives have a fitted effect of over 40% in size
Method in brief: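 Viability of MV4-11 AML cells lacking prior SYK inhibitor exposure is scored by CellTiter-Glo luminescence following 72 hr compound incubation at 37 C, 5% CO2, seeded at 500 cells per well.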

[2] = Viability qHTS for spleen associated tyrosine kinase inhibitor (SYKi) drug resistant MV4-11 cells (AID 1963824); also: nearly all actives have a fitted effect of over 35% in size
Method in brief: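 SYK-inhibitor-resistant MV4-11 AML cells were seeded at 500 per well onto compound and cultured 72 hours (37 °C, 5% CO2). CellTiter-Glo was then added, and after 10 min at room temperature, luminescence gave viability.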
Potency is read from the fitted curve at half-maximal effect; tags tell the direction and shape of the fitted curve.

For C=CCc1ccc(O[C@@H]2O[C@H](CO[C@@H]3O[C@@H](C)[C@H](O)[C@@H](O)[C@H]3O)[C@@H](O)[C@H](O)[C@H]2O)cc1, the Potency [1] was “inactive” and the Potency [2] was “inactive”.
With CC1OC(OC2C(OC3C(O[C@H]4CC[C@@]5(C)C(CC[C@]6(C)C5C(=O)CC5=C7CC(C)(C)CC(O)[C@]7(C)CC[C@]56C)C4(C)C)OC(C(=O)O)C(O)C3O)OCC(O)C2O)C(O)C(O)C1O (stereo partly drawn) the viability (% of control) [1] was inactive: 77.2% [at 9.25 µM] and the Potency [2] was inconclusive: 1.38 µM [cytotoxic, partial curve, poor fit].
In the case of C=C1C(=O)OC2CC(C)=C(C(C)CCCOC(C)=O)C(OC(=O)CC(C)CC)C12 (stereo not drawn), the Potency [1] is reported as inconclusive: 7.09 µM [cytotoxic, partial curve] and the Potency [2] is reported as active: 2.52 µM.
In the case of CC[C@H]1OC(=O)[C@H](C)C(=O)[C@H](C)[C@@H](OC2O[C@H](C)C[C@H](N(C)C)[C@H]2O)[C@@H](C)C[C@@H](C)C(=O)/C=C/[C@]1(C)O (stereo partly drawn), the Potency [1] is reported as “inactive” and the Potency [2] is reported as “inactive”.
In the case of CCOc1ccccc1OCCN[C@H](C)Cc1ccc(OC)c(S(N)(=O)=O)c1, the Potency [1] is reported as “inactive” and the Potency [2] is reported as inconclusive: 33.5 µM [cytotoxic, single point].
In the case of CC1(C)S[C@@H]2[C@H](NC(=O)C(c3ccccc3)S(=O)(=O)O)C(=O)N2[C@H]1C(=O)O (stereo partly drawn), the Potency [1] is reported as inconclusive: 29.9 µM [cytotoxic, single point] and the Potency [2] is reported as inconclusive: 0.0422 µM [rising, full curve, poor fit].
With O=C(O)CP(=O)(O)O the Potency [1] was “inactive” and the Potency [2] was “inactive”.
With COC(=O)C1C(CC(C)=O)C=CC(O)C12Oc1cc(C)cc(O)c1C2=O (stereo not drawn) the Potency [1] was inconclusive: 10.1 µM [cytotoxic, partial curve] and the Potency [2] was inconclusive: 14.3 µM [cytotoxic, partial curve].
With CC(O)C(C)n1ncn(-c2ccc(N3CCN(c4ccc(OCC5COC(Cn6cncn6)(c6ccc(Cl)cc6Cl)O5)cc4)CC3)cc2)c1=O (stereo not drawn) the Potency [1] was inconclusive: 2.06 µM [cytotoxic, full curve] and the Potency [2] was inconclusive: 2.06 µM [cytotoxic, full curve].
For CSCC[C@H](NC(=O)[C@H](CO)NC(=O)[C@H](CCC(=O)O)NC(C)=O)C(=O)N[C@H](C=O)CC(=O)O, the Potency [1] was inconclusive: 0.668 µM [cytotoxic, full curve, poor fit] and the Potency [2] was active: 1.5 µM.
For O=C(NCCN1CCN(c2cccc3ccc(O)cc23)CC1)c1ccc(F)cc1, the Potency [1] was inconclusive: 11.6 µM [cytotoxic, partial curve] and the Potency [2] was inconclusive: 16.4 µM [cytotoxic, partial curve].
With CC(C)C[C@@H]1NC(=O)[C@@H]2C[C@@]34C[C@@H]5[C@@]6(C)CCCC(C)(C)C6CC[C@@]5(C)N(c5ccccc53)[C@H]4N2C1=O (stereo partly drawn) the Potency [1] was inconclusive: 1.59 µM [cytotoxic, partial curve] and the Potency [2] was active: 0.448 µM.
In the case of Cc1occc1C(=O)n1ccnc1, the Potency [1] is reported as “inactive” and the Potency [2] is reported as inconclusive: 1.03 µM [cytotoxic, partial curve, poor fit].
In the case of C=C1CCC2[C@](C)(CCC[C@]2(C)C(=O)O)[C@H]1CC/C(C)=C/C(=O)OC (stereo partly drawn), the Potency [1] is reported as inconclusive: 14.3 µM [cytotoxic, partial curve, poor fit] and the Potency [2] is reported as inconclusive: 8.05 µM [cytotoxic, partial curve, poor fit].
With CCOc1cc(OCC)c(C(=O)CCC(=O)O)cc1OCC the Potency [1] was “inactive” and the Potency [2] was inconclusive: 33.5 µM [cytotoxic, partial curve, poor fit].
With COC(=O)C1C(O)CCC2CN3CCc4c([nH]c5ccccc45)C3CC21 (stereo not drawn) the Potency [1] was inconclusive: 2.55 µM [cytotoxic, full curve] and the Potency [2] was inconclusive: 2.55 µM [cytotoxic, partial curve, poor fit].
For Cc1sc(C)c(C(=O)NC2(c3ccc(C(=O)O)cc3)CC2)c1Cc1ccc(C(F)(F)F)cc1, the Potency [1] was inconclusive: 9.2 µM [cytotoxic, partial curve, poor fit] and the Potency [2] was inconclusive: 23.1 µM [cytotoxic, partial curve].
In the case of O=C1Nc2ccc(O)cc2O[C@H]1O[C@@H]1O[C@H](CO)[C@@H](O)[C@H](O)[C@H]1O, the Potency [1] is reported as “inactive” and the Potency [2] is reported as “inactive”.
In the case of Cc1ccn(-c2cc(Cl)ccc2[C@@H](Oc2cc(-c3ccc(C[C@H](N)C(=O)O)cc3)nc(N)n2)C(F)(F)F)n1, the Potency [1] is reported as inconclusive: 18.4 µM [cytotoxic, partial curve] and the Potency [2] is reported as active: 20.6 µM.
For CC(C)c1ccc(NC(=O)Cn2cnc3c2c(=O)n(C)c(=O)n3C)cc1, the Potency [1] was inconclusive: 10.3 µM [cytotoxic, partial curve, poor fit] and the Potency [2] was inconclusive: 16.4 µM [cytotoxic, partial curve].
In the case of CC1=CC2/C=C(\C)CC[C@@H](O)[C@@H](O)[C@@H]3O[C@@H]3C(=O)[C@]23C(=O)N[C@@H](CC(C)C)[C@@H]3[C@@H]1C (stereo partly drawn), the Potency [1] is reported as inconclusive: 2.52 µM [cytotoxic, single point] and the Potency [2] is reported as inconclusive: 8.93 µM [cytotoxic, single point].
In the case of NC[C@H]1CCC[C@@H](CNC(=O)[C@@H](Cc2c[nH]c3ccccc23)NC(=O)N2CCC3(C=Cc4ccccc43)CC2)C1, the Potency [1] is reported as inconclusive: 14.3 µM [cytotoxic, partial curve] and the Potency [2] is reported as inconclusive: 11.4 µM [cytotoxic, single point].
In the case of Cc1cc(C)cc(-c2cnc3cc(Cl)c(-c4cccc(O)c4)cc3c2OCCCN)c1, the Potency [1] is reported as inconclusive: 18.4 µM [cytotoxic, partial curve] and the Potency [2] is reported as inconclusive: 16.4 µM [cytotoxic, partial curve].
For C[C@]12CC[C@H](O)CC1=CC[C@@H]1[C@@H]2CC[C@]2(C)C(c3cccnc3)=CC[C@@H]12, the Potency [1] was inconclusive: 4.07 µM [cytotoxic, full curve] and the Potency [2] was inconclusive: 7.23 µM [cytotoxic, partial curve].
For O=C(c1ccccn1)N(Cc1cccs1)C1(C(=O)NC2CCCCC2)CCCCC1, the Potency [1] was inconclusive: 11.6 µM [cytotoxic, partial curve] and the Potency [2] was inconclusive: 10.3 µM [cytotoxic, partial curve].
With Cn1cc(C2=C(c3cn(CCCSC(=N)N)c4ccccc34)C(=O)NC2=O)c2ccccc21 the Potency [1] was inconclusive: 0.206 µM [cytotoxic, full curve] and the Potency [2] was active: 0.411 µM.
In the case of O=C(OC[C@H]1O[C@@H](Oc2ccccc2CO)[C@H](O)[C@@H](O)[C@@H]1O)c1ccccc1, the Potency [1] is reported as “inactive” and the Potency [2] is reported as “inactive”.
In the case of COc1cc(O)c2c(c1)/C=C/C[C@H](O)[C@H](O)C(=O)/C=C\C[C@H](C)OC2=O, the Potency [1] is reported as inconclusive: 103 nM [cytotoxic, full curve] and inconclusive: 206 nM [cytotoxic, full curve] and the Potency [2] is reported as inconclusive: 0.0461 µM [cytotoxic, full curve].
For O=C(O)c1ccnc2cc(C(OCC3CCC(F)(F)CC3)c3ccccc3Cl)[nH]c12 (stereo not drawn), the Potency [1] was “inactive” and the Potency [2] was “inactive”.
In the case of COc1c2c(nc3occc13)C(CC=C(C)C)(OC)C(O)CC2 (stereo not drawn), the Potency [1] is reported as inconclusive: 16.1 µM [cytotoxic, single point] and the Potency [2] is reported as inconclusive: 20.2 µM [cytotoxic, single point].
In the case of C=CCSCC1Nc2cc(Cl)c(S(N)(=O)=O)cc2S(=O)(=O)N1 (stereo not drawn), the Potency [1] is reported as inconclusive: 18.8 µM [cytotoxic, partial curve] and the Potency [2] is reported as active: 10.6 µM.
For COc1cc2nc(Cl)nc(N)c2cc1OC, the Potency [1] was inconclusive: 0.266 µM [rising, full curve] and the Potency [2] was inconclusive: 29.9 µM [cytotoxic, single point].
In the case of CC(C)c1ccc2c(c1)C(=O)CC1[C@@](C)(C(=O)O)CCC[C@]21C (stereo partly drawn), the Potency [1] is reported as inconclusive: 14.3 µM [cytotoxic, single point] and the Potency [2] is reported as inconclusive: 11.4 µM [cytotoxic, partial curve, poor fit].
For O=C(c1cc(Cc2n[nH]c(=O)c3ccccc23)ccc1F)N1CCCNCC1, the Potency [1] was inconclusive: 14.6 µM [cytotoxic, partial curve, poor fit] and the Potency [2] was inconclusive: 23.1 µM [cytotoxic, single point].
In the case of CCn1nnnc1NCc1ccc(C(C)C)cc1, the Potency [1] is reported as inconclusive: 5.8 µM [cytotoxic, partial curve, poor fit] and the Potency [2] is reported as inconclusive: 18.4 µM [cytotoxic, single point].
In the case of CC[C@@H](Nc1c(Nc2cccc(C(=O)N(C)C)c2O)c(=O)c1=O)c1cc(C(C)C)co1, the Potency [1] is reported as inconclusive: 14.6 µM [cytotoxic, partial curve, poor fit] and the Potency [2] is reported as inconclusive: 20.6 µM [cytotoxic, single point].
For Cc1csc(N(C(=O)CSc2ccc(-c3ccccc3)nn2)C2CC2)n1, the Potency [1] was “inactive” and the Potency [2] was inconclusive: 29.1 µM [cytotoxic, single point].
In the case of C[C@@H]1O[C@@H](O[C@H]2[C@@H](OC(=O)[C@]34CCC(C)(C)CC3C3=CCC5[C@@]6(C)C[C@H](O)[C@H](O[C@@H]7O[C@H](CO)[C@@H](O)[C@H](O)[C@H]7O[C@@H]7OC[C@@H](O)[C@H](O)[C@H]7O)[C@@](C)(C(=O)O)C6CC[C@@]5(C)[C@]3(C)CC4)OC[C@H](O)[C@@H]2O)[C@H](O)[C@H](O)[C@H]1O[C@@H]1OC[C@@H](O)[C@H](O)[C@H]1O (stereo partly drawn), the Potency [1] is reported as inconclusive: 1.74 µM [cytotoxic, partial curve] and the Potency [2] is reported as active: 1.38 µM.
For O=C(O[C@H]1[C@@H]2C[C@@H]3OC[C@@](O)([C@H]2[C@H](O[C@@H]2O[C@H](CO)[C@@H](O)[C@H](O)[C@H]2O)O3)[C@@H]1O)c1ccccc1, the Potency [1] was “inactive” and the Potency [2] was “inactive”.
